Reference: PubChem BioAssay AID504832 (National Center for Advancing Translational Sciences (NCATS), 2011)
The campaign covered roughly 310,000 compounds. About 18,000 (5.8%) were called active. The inconclusive results got no clear call from the source; some entries with a clear call stand among them for comparison. Calls follow the shape of the dose curve; as a rule, active = well fitted inhibition curve with a large enough effect; inconclusive = small, poorly fitted or top-dose-only effect, or another doubt; inactive = no such curve, though single readings can be large or run the other way. No potency is given beside an inconclusive call; the fits are too rough.

Assay: Primary qHTS for delayed death inhibitors of the malarial parasite plastid, 48 hour incubation
Conditions: P. falciparum luciferase growth in erythrocytes; series mostly up to 28.7 µM
How it was run: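 First compound was added to culture medium, then infected red cells at 0.1% parasitemia and 2% hematocrit (final). After incubation at 37 C under 5% CO2, luciferase detection reagent was dispensed and light output recorded.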
% is scaled to controls: 0 for no effect and ±100 for the full control effect; potency is read from the fitted curve at half-maximal effect; tags tell the direction and shape of the fitted curve.

Compound | Potency | activity change, negative = inhibition
O=c1c2ccccc2nc(-c2ccccc2Cl)n1-c1ccc(O)cc1 | inconclusive [inhibitor, partial curve, poor fit] | 
CCOC(=O)c1ccc(N2Cc3ccccc3C2=NC(=O)c2cccs2)cc1 | inconclusive [inhibitor, single point] | 
CCCCn1c(N)c(N(CCOC)C(=O)c2ccc(S(=O)(=O)N3CCC(C)CC3)cc2)c(=O)[nH]c1=O | inconclusive [inhibitor, single point] | 
O=c1[nH]c(O)c(C=Nc2ccc(Cl)c(C(F)(F)F)c2)c(=O)[nH]1 | inconclusive [inhibitor, full curve, poor fit] | 
COc1cccc(C(=O)OCn2nnc3ccccc3c2=O)c1OC | inactive | 
COc1cccc(NC(=O)Nc2cccs2)c1 | inconclusive [inhibitor, full curve, poor fit] | 
CC(C)(C)n1nnnc1C(c1ccc(F)cc1)N(Cc1ccc(F)cc1)Cc1ccco1 (stereo not drawn) | inconclusive [inhibitor, full curve] | 
COc1ccc(CCC(=O)N2C[C@H]3C[C@@H](C2)c2cccc(=O)n2C3)cc1 | inconclusive [inhibitor, single point] | 
CCOc1ncccc1C(=O)OCc1cccc([N+](=O)[O-])c1 | inactive | 
COc1ccc([N+](=O)[O-])cc1NC(=O)C(C)OC(=O)c1ccccc1C(=O)c1ccc(Cl)cc1 (stereo not drawn) | inconclusive [inhibitor, partial curve, poor fit] | 
Cc1ccccc1-c1nc(CN(C)C(C)c2ccon2)c(C)o1 (stereo not drawn) | inactive | 
CC1(C)Cc2ccccc2C(=C(C#N)C#N)N1 | inconclusive [inhibitor, partial curve, poor fit] | 
CC(C)CN1C=C2C(=O)C(C)(OC(=O)CCc3ccccc3)C(=O)C=C2C=C1c1ccc(C#N)cc1 (stereo not drawn) | inconclusive [inhibitor, single point] | 
COc1ccc(C2(c3ccc(OC)cc3)NC(=O)N(CC(=O)Nc3ccc(OC)c(OC)c3)C2=O)cc1 | active: 6.57 µM | 
O=C(Cc1c[nH]c2ccccc12)N/N=C/c1ccccc1O | inconclusive [inhibitor, full curve] | 
CCn1c(=O)c(C(=O)NCCc2ccccc2)c(O)c2ccccc21 | inconclusive [inhibitor, single point] | 
CC(C)c1ccc(NC(=O)C2C3C=CC4(O3)C2C(=O)N(CCCN2CCCCC2)C4C(=O)NC2CCCCC2)cc1 (stereo not drawn) | inconclusive [inhibitor, single point] | 
O=C(NCc1ccccn1)c1ccccc1OCc1ccc(Cl)cc1Cl | inconclusive [inhibitor, single point] | 
CCN(C(=O)COC(=O)c1c(-c2ccccc2)noc1C)c1c(N)n(Cc2ccccc2)c(=O)[nH]c1=O | inconclusive [inhibitor, partial curve] | 
CC(C)c1ccc(C2C3=C(CC(C)(C)CC3=O)NC3=C2C(=O)c2ccccc23)cc1 (stereo not drawn) | active: 9.28 µM | 
Cc1ccc(S(=O)(=O)N(CC(=O)NCCC2=CCCCC2)Cc2ccccc2F)cc1 | inconclusive [inhibitor, partial curve] | 
COc1cc(/C=N/NC(N)=S)ccc1OCc1ccc(C)cc1 | inconclusive [inhibitor, single point] | 
COCCN(C(=O)CSc1nnc(-c2ccccc2F)o1)c1c(N)n(CC(C)C)c(=O)[nH]c1=O | inconclusive [inhibitor, partial curve] | 

Compound | Potency | activity change, negative = inhibition
CC(C)OC(=O)c1nnc(-c2ccccc2)nc1OC(C)C | inconclusive [inhibitor, single point] | 
Cc1ccc([N+](=O)[O-])cc1S(=O)(=O)NCC1COc2ccccc2O1 (stereo not drawn) | inactive | 
CCOc1cccc(C(=O)NC2=NCCS2)c1 | inactive | 
COc1cccc(NC(=O)CN2C(=O)CSc3ccc(S(=O)(=O)N4CCC(C)CC4)cc32)c1 | inconclusive [inhibitor, single point] | 
S=C(Nc1cccc(Cl)c1)N(CCCN1CCCC1)Cc1cccn1Cc1ccc(Cl)cc1 | inconclusive [inhibitor, partial curve] | 
COc1cc(NC(=O)Cn2c([N+](=O)[O-])cnc2C)c(OC)cc1Cl | inconclusive [inhibitor, partial curve, poor fit] | 
CCOC(=O)C1(c2ccccc2)CCN(CC(=O)Nc2cccc3ccccc23)CC1 | inconclusive [inhibitor, single point] | 
CCS(=O)(=O)c1ccc2c(c1)N(S(=O)(=O)c1ccc(Cl)cc1)CC(C(=O)O)O2 (stereo not drawn) |  | inactive: 7.78% [at 5.75 µM]
O=[N+]([O-])c1ccc(NNS(=O)(=O)c2cc(Cl)ccc2Cl)nc1 | inconclusive [inhibitor, single point] | 
CCCCn1c(N)c(N(CC(C)C)C(=O)c2ccc(OCc3c(C)noc3C)cc2)c(=O)[nH]c1=O | inconclusive [inhibitor, single point] | 
O=C(CNC(=O)c1ccc(Br)o1)Nc1ccc(F)c(S(=O)(=O)N2CCOCC2)c1 | inconclusive [inhibitor, partial curve] | 
COc1ccc(C23CC4CC(CC(C4)C2)C3)cc1C(=O)NCCN(C)C | inconclusive [inhibitor, single point] | 
CCCCCNCc1cccc(Br)c1 | inactive | 
Cc1cccc(CN2CCc3c([nH]c4ccccc34)C2C(C)(C)C)n1 (stereo not drawn) | inconclusive [inhibitor, partial curve, poor fit] | 
COc1cccc(C(=O)C[n+]2ccccc2/C=N/O)c1 | inactive | 
O=C(CSc1nc2ccccc2c(=O)n1-c1ccccc1)NCc1ccc2c(c1)OCO2 | inconclusive [inhibitor, single point] | 
Oc1ccc(Nc2nc(Cl)nc(NCc3ccco3)n2)cc1 | inactive | 
CC(CC1CC(C)(C)OC1=O)C(=O)Nc1ccc([N+](=O)[O-])cc1 (stereo not drawn) | inconclusive [inhibitor, single point] | 
CCCCCCC(=O)N/N=C/c1c(O)n(C2CC2)c(=S)[nH]c1=O | inconclusive [inhibitor, partial curve, poor fit] | 
O=C(NCCN1CCOCC1)c1cccc(S(=O)(=O)Nc2ccc(Br)cc2)c1 | inconclusive [inhibitor, single point] | 
Cc1ccc(-c2[nH]ncc2C(=O)c2cccc(F)c2)c(O)c1 | inconclusive [inhibitor, partial curve, poor fit] | 
COc1cccc(CN2CCN(Cc3ccc(C)o3)CC2CCO)c1 (stereo not drawn) | inactive | 
CN(C)CCNC(=O)c1cc2ccccc2oc1=O | inactive | 

Compound | Potency | activity change, negative = inhibition
O=C(CSc1nc2[nH]c(=O)cc(O)c2s1)NCCc1ccccc1 | inconclusive [inhibitor, full curve, poor fit] | 
COc1ccccc1Nc1nc(-c2ccc3c(c2)NC(=O)CO3)cs1 | inactive | 
Cc1cccc(OCC2CCCN(Cc3nc(C4CC4)no3)C2)c1 (stereo not drawn) | inconclusive [inhibitor, single point] | 
O=C(CCNC(=O)c1ccc([N+](=O)[O-])cc1)Nc1cccc(S(=O)(=O)N2CCCCCC2)c1 | inactive | 
Nn1c(SC/C=C/c2ccccc2)nnc1-c1ccccn1 | inconclusive [inhibitor, partial curve, poor fit] | 
COc1ccc(-n2nc(C(=O)NCC(=O)NC3CCCCC3)c3ccccc3c2=O)cc1 | inactive | 
COc1cccc(NC(=O)N2CCCCCC2)c1 | inactive | 
CC(=O)N(CCC1(C(C)C)CCOC(C)(C)C1)Cc1ccco1 (stereo not drawn) | inconclusive [inhibitor, single point] | 
CCC1(c2ccccc2)NC(=O)N(CC(=O)NNC(=O)CCN2CCN(c3ccccc3)CC2)C1=O (stereo not drawn) | inconclusive [inhibitor, single point] | 
O=C(NC(c1ccccc1)c1c(O)ccc2ccccc12)c1ccccc1Cl (stereo not drawn) | inconclusive [inhibitor, single point] | 
Cc1cccc(NC(=O)c2snc3c(=O)[nH]cnc23)c1 | inactive | 
C=CCNC(=O)c1onc(CSc2ccc(Cl)cc2)c1C(=O)O | inactive | 
CCn1cc(C(=O)O)c(=O)c2cc(F)c(N3CCN(C(=S)NC(=O)c4cccc(F)c4)CC3)cc21 | active: 10.4 µM | 
CCCCC1(C(=O)OCC)CC(CSC(=N)N)OC1=O (stereo not drawn) | inactive | 
CCN(c1ccccc1)S(=O)(=O)c1ccc(C(=O)Nc2ccncc2)cc1 | inconclusive [inhibitor, full curve, poor fit] | 
Cc1cccc2nc3c(nc12)CCCC3 | inactive | 
Cc1cc2n(n1)C(c1ccc3c(c1)OCO3)Nc1c(C)cccc1-2 (stereo not drawn) | inconclusive [inhibitor, single point] | 
CCCN(CC(=O)Nc1ccccc1OC)C(=O)Cc1ccccc1F | inactive | 
Cc1nc(Nc2ccc(F)cc2)nc(Nc2ccc(F)cc2)c1[N+](=O)[O-] | inconclusive [inhibitor, single point] | 
CC1=C(C(=O)OCC(C)C)C(c2cccc(F)c2)N2C(=O)C(C)SC2=N1 (stereo not drawn) | active: 10.4 µM | 
CCOC(=O)N1CCC(NC(=O)CCc2nc(C3=CCN(C)CC3)no2)CC1 | inactive | 
COc1cccc(Nc2nc(CN3CCOCC3)nc3sc4c(c23)CCCC4)c1 | active: 14.7 µM | 
